Measurements taken from PubChem BioAssay AID504332 (National Center for Advancing Translational Sciences (NCATS), 2011).
Among all 350,000 compounds or so, about 31,000 (8.9%) were called active. Inconclusive results, whose numbers are uncertain, are shown with a selection of clear calls. Calls come from the whole dose curve; as a rule, active = well fitted inhibition curve with a large enough effect; inconclusive = small, poorly fitted or top-dose-only effect; inactive = no such curve, though single readings can be large or run the other way. Potencies of inconclusive entries are doubtful fits and often do not repeat.
% is set by controls: 0 for no effect and ±100 for the full control effect; potency is the fitted concentration of half-maximal effect; tags give direction and shape of the fitted curve.
Note: nearly all actives have a fitted effect of over 75% in size.

Each compound was assayed against Histone-lysine N-methyltransferase EHMT2 (Homo sapiens) (UniProt Q96KQ7) (assay: qHTS Assay for Inhibitors of Histone Lysine Methyltransferase G9a). Details: G9a H3K9 monomethylation, AlphaScreen, 2 h; activity, negative = inhibition: at 59 µM (top of the series) unless noted.
Chain of UniProt Q96KQ7 (Q96KQ7 whole entry, looked up): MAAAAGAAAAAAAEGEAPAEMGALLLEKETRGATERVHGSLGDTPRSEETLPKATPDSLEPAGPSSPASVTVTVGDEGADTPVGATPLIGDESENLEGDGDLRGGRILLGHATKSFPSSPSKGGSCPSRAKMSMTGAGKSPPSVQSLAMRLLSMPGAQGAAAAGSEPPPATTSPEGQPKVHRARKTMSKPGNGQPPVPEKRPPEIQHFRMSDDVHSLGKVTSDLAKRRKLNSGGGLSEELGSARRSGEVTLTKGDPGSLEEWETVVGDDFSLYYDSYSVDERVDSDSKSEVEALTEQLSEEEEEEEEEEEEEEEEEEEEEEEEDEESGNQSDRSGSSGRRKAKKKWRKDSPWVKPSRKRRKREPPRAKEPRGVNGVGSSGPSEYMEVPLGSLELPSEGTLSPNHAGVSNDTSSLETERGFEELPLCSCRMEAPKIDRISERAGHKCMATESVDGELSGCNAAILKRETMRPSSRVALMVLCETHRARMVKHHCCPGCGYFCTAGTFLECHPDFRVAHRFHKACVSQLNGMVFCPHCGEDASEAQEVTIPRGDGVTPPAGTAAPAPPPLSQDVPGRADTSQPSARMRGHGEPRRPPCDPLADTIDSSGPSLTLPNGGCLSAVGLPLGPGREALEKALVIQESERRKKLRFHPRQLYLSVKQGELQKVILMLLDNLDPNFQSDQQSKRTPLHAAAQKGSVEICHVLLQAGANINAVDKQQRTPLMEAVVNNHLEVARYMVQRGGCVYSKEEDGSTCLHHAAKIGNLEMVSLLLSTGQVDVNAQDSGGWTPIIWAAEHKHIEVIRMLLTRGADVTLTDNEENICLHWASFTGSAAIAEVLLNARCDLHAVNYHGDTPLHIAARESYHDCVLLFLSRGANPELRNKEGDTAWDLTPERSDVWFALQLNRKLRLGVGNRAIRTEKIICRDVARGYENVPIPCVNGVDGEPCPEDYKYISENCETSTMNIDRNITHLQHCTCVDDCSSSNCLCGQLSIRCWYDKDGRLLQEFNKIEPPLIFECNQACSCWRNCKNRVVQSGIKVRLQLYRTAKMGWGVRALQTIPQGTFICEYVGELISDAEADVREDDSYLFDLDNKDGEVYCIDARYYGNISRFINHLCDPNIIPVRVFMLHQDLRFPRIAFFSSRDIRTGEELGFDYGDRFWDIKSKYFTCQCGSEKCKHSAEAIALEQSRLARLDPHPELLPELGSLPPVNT
Method in brief: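 Chemiluminescent proximity detection of H3K9 monomethylation, read after 10 min bead incubation in the dark. Reaction: 20 nM G9a, 500 nM biotin-H3K9 peptide, 20 uM SAM cofactor, 2 h, room temperature, following 15 min enzyme-compound preincubation.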
With `COc1ccc(-c2noc(CCC(=O)N3CCN(Cc4ccccc4)CC3)n2)cc1` the Potency was inconclusive: 79.4 µM [inhibitor, single point].
With `COc1ccc(/C=C2/SC(=S)N(NS(=O)(=O)c3ccc(C)cc3)C2=O)cc1` the Potency was inconclusive: 79.4 µM [inhibitor, single point].
For `COc1ccccc1-n1cc(C(=O)N2CCCC(CO)(Cc3ccccc3C)C2)cn1` (stereo not given), the Potency was inconclusive: 89.1 µM [inhibitor, single point].
With `CCOC(=O)C1=C(CS(=O)(=O)c2ccc(F)c(C)c2)NC(=O)NC1c1ccc(O)c(O)c1` (stereo not given) the Potency was active: 25.1 µM.
`CCN(CC)CCNC(=O)CN1N=C(c2ccc(OC)cc2)CCC1=O` was tested, and the “activity, negative = inhibition” value was inactive: -2.08%.
For `COc1cc(C(=O)NC(=S)N(CCc2ccccc2)CCc2ccccc2)cc(OC)c1OC`, the “activity, negative = inhibition” value was inactive: 8.7%.
For `O=C(O)c1cccc(Nc2nc(-c3ccccc3)nc3ccccc23)c1`, the Potency was active: 56.2 µM.
With `Cc1ccccc1-n1c(C)cc(/C=C2/C(=N)N3C(c4ccccc4)=CSC3=NC2=O)c1C` the Potency was inconclusive: 28.2 µM [inhibitor, single point].
In the case of `Cn1c(=O)n(Cc2ccccc2)c(=O)c2c1nc1n2CCN1c1ccccc1`, the “activity, negative = inhibition” value was inactive: -29.6%.
With `CCCSc1oc(-c2ccco2)nc1S(=O)(=O)c1ccccc1` the Potency was inconclusive: 3.16 µM [inhibitor, partial curve, poor fit].
For `CCOCCn1c(CN2CCC(C)CC2)nc2c1c(=O)n(C)c(=O)n2C`, the Potency was inconclusive: 89.1 µM [inhibitor, single point].
In the case of `CN1C(=O)C(/C(N)=N/NC(=O)c2ccccc2)C2CC1(C)Oc1ccccc12` (stereo not given), the Potency was inconclusive: 4.47 µM [inhibitor, partial curve, poor fit].
`CCOc1ccc(-c2nnc(SCC(=O)NCc3ccccc3Cl)o2)cc1` was tested, and the Potency was inconclusive: 28.2 µM [inhibitor, partial curve, poor fit].
`COc1ccc(CCNC(=O)c2cc(Cl)nc3ccccc23)cc1` was tested, and the Potency was inconclusive: 3.98 µM [inhibitor, full curve].
In the case of `C=CCOc1ccccc1CN1CCSCC1`, the Potency was inconclusive: 20 µM [inhibitor, partial curve, poor fit].
`CC(=O)C1=C(O)C(=O)N(c2ccc(Br)cn2)C1c1ccccc1F` (stereo not given) was tested, and the Potency was inconclusive: 70.8 µM [inhibitor, single point].
In the case of `Cc1sc(NC(=O)CCS(=O)(=O)c2ccccc2)c(C#N)c1C`, the activity, negative = inhibition was inconclusive: -63.1% [inhibitor] [at 2.33 µM].
`CC(=Nc1ccccc1)C1=C(O)CSC1=O` was tested, and the Potency was active: 50.1 µM.
In the case of `CC(C)(C)NC[C@H](O)CSc1nc(-c2ccc(C(N)=O)s2)cs1`, the Potency was inconclusive: 2.51 µM [inhibitor, partial curve, poor fit].
In the case of `O=C(c1cccs1)N1CCN(C2CCCCC2)CC1`, the Potency was active: 14.1 µM.
`C#Cc1ccc([C@@H]2C=C(C(=O)NCc3ccccc3)O[C@H](OCc3ccc(CO)cc3)C2)cc1` was tested, and the activity, negative = inhibition was inconclusive: -75.4% [inhibitor].
For `CCc1nnc(NC2=NCCC2)s1`, the activity, negative = inhibition was inconclusive: -66.7% [inhibitor].
`Oc1ccc(/C=N/Nc2ncc(Br)cn2)c(O)c1` was tested, and the “activity, negative = inhibition” value was inactive: 48.6%.
With `Cn1cccc1/C=N\NC(=O)Cc1ccc(Br)c2ccccc12` the “activity, negative = inhibition” value was inactive: 27.4%.
In the case of `COc1ccc(-n2ncc3c2CC(C)(C)CC3NC(=O)c2c(C)cc(=O)oc2C)cc1` (stereo not given), the Potency was inconclusive: 39.8 µM [inhibitor, partial curve, poor fit].
With `COc1cc2c(cc1NC(=O)COC(=O)C(CCSC)NC(=O)c1ccccc1Cl)oc1ccccc12` (stereo not given) the Potency was inconclusive: 22.4 µM [inhibitor, single point].
`Cc1ccc(S(=O)(=O)N2CCN(C(=O)N(c3ccccc3)c3ccccc3)CC2)cc1` was tested, and the Potency was inconclusive: 28.2 µM [inhibitor, single point].
With `COc1ccc(-c2cn(-c3ccccc3)c(=S)[nH]2)cc1OC` the Potency was active: 8.91 µM.
With `Cc1ccc(NC(=O)COC(=O)/C=C/c2ccc(Br)o2)cc1S(=O)(=O)N(C)C` the Potency was inconclusive: 44.7 µM [inhibitor, partial curve, poor fit].
With `CCc1ccc(NC(=O)Cn2c(=O)n(CCCCC(=O)NCc3ccccc3Cl)c(=O)c3ccccc32)cc1` the “activity, negative = inhibition” value was inactive: -1.4%.
`O=C(CSc1cn(CC(=O)N2CCCCCC2)c2ccccc12)NCC1CCCO1` (stereo not given) was tested, and the “activity, negative = inhibition” value was inactive: -20.2% [at 102 µM].
For `COC(=O)c1sc(N2CCCCC2)c(C#N)c1N`, the “activity, negative = inhibition” value was inactive: -31.1% [at 102 µM].
`Cc1ccc(-c2onc(C)c2C)cc1S(=O)(=O)NCc1ccc(N(C)C)cc1` was tested, and the Potency was active: 11.2 µM.
`CCOC(=O)N1CCN(c2c(NCCCOC(C)C)c(=O)c2=O)CC1` was tested, and the Potency was inconclusive: 35.5 µM [inhibitor, full curve].
`CCCNC(=O)c1ccc(N2CCC3(CC2)CC(c2ccc(Cl)cc2)=NO3)c([N+](=O)[O-])c1` was tested, and the Potency was inconclusive: 89.1 µM [inhibitor, single point].
`Cc1cccc(NC(=O)CN2C(=O)N/C(=C/c3ccc(-c4cccc(C(=O)O)c4C)o3)C2=O)c1` was tested, and the Potency was inconclusive: 56.2 µM [inhibitor, single point].
`COc1cn(-c2ccccc2)nc1C(=O)Nc1ccc(C)cc1Cl` was tested, and the Potency was inconclusive: 89.1 µM [inhibitor, single point].
With `O=C(Nc1ccc(N2CCCCC2)cc1)C(Cl)c1ccccc1` (stereo not given) the activity, negative = inhibition was inconclusive: -91% [inhibitor].
`CCCOc1ccccc1N1C(=O)CC(N2CCOCC2)C1=O` (stereo not given) was tested, and the Potency was inconclusive: 6.31 µM [inhibitor, single point].
In the case of `CCN(CC)c1ccc(C2N(C(=O)N3CCOCC3)CCN2S(=O)(=O)c2ccc(C)cc2)cc1` (stereo not given), the activity, negative = inhibition was inconclusive: -74.3% [inhibitor].
With `C=CCn1c(N)cc(=O)nc1SCC(=O)Nc1ccc(C)cc1` the Potency was inconclusive: 89.1 µM [inhibitor, single point].
With `CCC1CCCCN1Cc1ccc(OC)c(C)c1C` (stereo not given) the Potency was active: 25.1 µM.
For `CC(C)CCNC(=O)CCc1nnc(Cc2c[nH]c3ccccc23)o1`, the Potency was inconclusive: 50.1 µM [inhibitor, partial curve].
In the case of `CSC1=NC(C)(C)C=C(/C=C/c2ccc(Cl)cc2)N1`, the Potency was active: 28.2 µM.
With `COc1ccc(NC(=O)c2cc(C)nc3c2c(C)nn3-c2ccc(C)cc2)cc1OC` the “activity, negative = inhibition” value was inactive: -7.39%.
For `N#C/C(=C/c1ccncc1)c1nc2ccccc2c(=O)[nH]1`, the Potency was active: 44.7 µM.
In the case of `CC(=O)c1c(C)n([O-])c2ccccc2[n+]1=O`, the Potency was inconclusive: 25.1 µM [inhibitor, partial curve, poor fit].
`Cc1ccc(CCNC(=O)C2CCC(=O)N(Cc3cccc(F)c3)C2)cc1` (stereo not given) was tested, and the “activity, negative = inhibition” value was inactive: -19.6% [at 102 µM].
With `CC1CCc2cc(F)ccc2N1C(=O)c1cc2nc(-c3ccco3)cc(C(F)(F)F)n2n1` (stereo not given) the Potency was active: 50.1 µM.
For `CCCC1=Nc2cc(C(=O)NCc3ccco3)ccc2Sc2ccccc21`, the Potency was inconclusive: 3.16 µM [inhibitor, full curve].
`Cc1scc(C(=O)NNC(=S)NC(C)c2ccccc2)c1C` (stereo not given) was tested, and the Potency was inconclusive: 70.8 µM [inhibitor, single point].
`C=CCN(Cc1nc(-c2ccc(OC)c(OC)c2)oc1C)C1CCS(=O)(=O)C1` (stereo not given) was tested, and the Potency was active: 12.6 µM.
`CCOCCCn1c(=S)[nH]c2cc(C(=O)N3CCOCC3)ccc2c1=O` was tested, and the Potency was inconclusive: 39.8 µM [inhibitor, single point].
With `CN1CCC(NC(=O)c2ccncc2)CC1` the Potency was inconclusive: 50.1 µM [inhibitor, partial curve].
In the case of `Cc1ccc(N=Nc2c(O)[nH]c3ccc(F)cc23)cc1`, the Potency was active: 20 µM.
In the case of `Cc1ccc(CCNC(=O)c2ccc3[nH]c(C)c(C)c3c2)cc1`, the Potency was inconclusive: 25.1 µM [inhibitor, single point].
`Cc1cc(C)cc(-n2cnc3cc(C(=O)NC4CCCCCC4)ccc32)c1` was tested, and the “activity, negative = inhibition” value was inactive: -27%.
With `Cn1cccc1Cc1nnc(SCC(=O)NC2CCCCC2)n1-c1ccc(F)cc1` the Potency was inconclusive: 89.1 µM [inhibitor, single point].
`O=[N+]([O-])c1ccc(NNC(=S)Nc2ccccc2)cc1` was tested, and the Potency was inconclusive: 2.82 µM [inhibitor, partial curve, poor fit].
In the case of `CN(C)S(=O)(=O)c1ccc(NC(=O)c2ccc(Br)o2)cc1`, the Potency was inconclusive: 89.1 µM [inhibitor, partial curve, poor fit].
For `COc1ccc(-c2sc(Nc3ccccc3)n[n+]2-c2ccc(F)cc2)c(OC)c1OC`, the Potency was inconclusive: 89.1 µM [inhibitor, single point].
For `CCCCN(CCCC)c1nc(-c2ccncc2)nc2ccccc12`, the “activity, negative = inhibition” value was inactive: 191% [at 102 µM].
`c1csc(-c2nn3c(Cn4cnc5ccccc54)nnc3s2)c1` was tested, and the Potency was inconclusive: 2.82 µM [inhibitor, partial curve, poor fit].
For `CCOc1cc(C(=O)OCC(=O)c2cc(C)n(CC3CCCO3)c2C)ccc1OCC(=O)N1CCOCC1` (stereo not given), the Potency was inconclusive: 89.1 µM [inhibitor, partial curve, poor fit].
`Nc1nc2c(s1)CCc1c-2cnn1-c1ccccc1` was tested, and the Potency was inconclusive: 1.12 µM [inhibitor, full curve, poor fit].
In the case of `COc1ccc(C)cc1S(=O)(=O)N1CCN(C(=O)c2ncoc2-c2cccc(F)c2)CC1`, the Potency was inconclusive: 8.91 µM [inhibitor, full curve].
`CCN1CCN(c2ccc(S(=O)(=O)N3CCCCC3)cc2NC(=O)c2cccc(C)c2)CC1` was tested, and the Potency was active: 50.1 µM.
With `CSCCOC(=O)C1=C(C)Nc2ccc(C)cc2S1` the Potency was active: 25.1 µM.
In the case of `CC(C)(C)C(=O)NC(c1ccccc1)c1c(O)ccc2ccccc12` (stereo not given), the Potency was inconclusive: 79.4 µM [inhibitor, single point].
`Cc1cc(F)ccc1Oc1cc(NN2CCCCC2)c([N+](=O)[O-])cc1[N+](=O)[O-]` was tested, and the Potency was inconclusive: 35.5 µM [inhibitor, full curve, poor fit].
